Measurements from the supplement of paper PMC3334620.
In all, about 33,000 sequences were measured (“E-score (-0.5 to 0.5)”: median about -0.035, highest 2% from about 0.35 on). The list shows a part of the results.

Biological target: T1, Pdr3 (UniProt P33200)
T1 sequence: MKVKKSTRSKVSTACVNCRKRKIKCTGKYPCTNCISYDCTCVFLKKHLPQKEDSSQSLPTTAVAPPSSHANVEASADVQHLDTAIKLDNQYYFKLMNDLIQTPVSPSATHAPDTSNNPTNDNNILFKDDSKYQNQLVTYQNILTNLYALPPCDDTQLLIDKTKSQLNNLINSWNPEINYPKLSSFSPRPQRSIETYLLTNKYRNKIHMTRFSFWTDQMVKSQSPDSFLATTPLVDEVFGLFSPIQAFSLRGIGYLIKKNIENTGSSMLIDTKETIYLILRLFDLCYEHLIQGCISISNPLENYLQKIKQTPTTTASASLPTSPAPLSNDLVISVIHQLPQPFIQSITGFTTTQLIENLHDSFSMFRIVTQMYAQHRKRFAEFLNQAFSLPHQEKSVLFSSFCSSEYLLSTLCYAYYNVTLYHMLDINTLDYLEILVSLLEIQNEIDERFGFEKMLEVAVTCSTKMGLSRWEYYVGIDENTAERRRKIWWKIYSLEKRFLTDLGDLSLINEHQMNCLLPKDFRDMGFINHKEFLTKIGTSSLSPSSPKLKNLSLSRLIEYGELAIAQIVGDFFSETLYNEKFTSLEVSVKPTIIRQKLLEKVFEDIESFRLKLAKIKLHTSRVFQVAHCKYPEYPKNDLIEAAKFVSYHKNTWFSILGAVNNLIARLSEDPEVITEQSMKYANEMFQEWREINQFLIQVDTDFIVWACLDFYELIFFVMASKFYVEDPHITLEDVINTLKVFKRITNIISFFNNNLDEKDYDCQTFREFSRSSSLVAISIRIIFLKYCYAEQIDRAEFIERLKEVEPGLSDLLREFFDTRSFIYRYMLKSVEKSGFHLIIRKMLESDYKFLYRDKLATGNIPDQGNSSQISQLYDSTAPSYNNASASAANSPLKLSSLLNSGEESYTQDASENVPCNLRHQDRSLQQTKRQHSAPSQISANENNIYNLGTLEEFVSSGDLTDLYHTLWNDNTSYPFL
Experiment: PBM E-score (8-mer binding enrichment) (E-score (-0.5 to 0.5)); higher = stronger / more preferred TF binding; most listed sequences are background and not binding sites
Conditions: protein concentration: 200 nM; construct: GST-full length
Outline: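 Masliner-normalised scans of fluorescent anti-GST signal were the basis for scoring. That signal came from GST-tagged yeast transcription factors applied at about 100-200 nM to double-stranded universal all-10-mer Agilent arrays on fresh or once-stripped slides. Each ungapped eight-base word, pooled with its reverse complement, received an E-score from the Universal PBM Analysis Suite.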

Row | Sequence | PBM E-score
1 | CCGTGAGG | 0.0332
2 | TCGTTAGA | -0.24
3 | CTGTTGGC | -0.0902
4 | AGTTCTAT | -0.128
5 | ATGCGGAG | 0.0777
6 | ACAACATG | -0.0382
7 | ACGAGTGA | -0.0922
8 | ACACCTAT | -0.0637
9 | TGTTAGAA | -0.264
10 | GTAACTTA | -0.121
11 | GGTTTCAC | -0.0885
12 | GGCTGGGA | -0.0695
13 | GCCTCTCA | 0.0327
14 | CATCCCGA | 0.352
15 | GTATAAAA | 0.203
16 | ACATGGGA | 0.108
17 | GGCTTGTA | -0.195
18 | ATTCCTGG | 0.0168
19 | GCGGCCAA | 0.152
20 | GAAGGGGA | -0.0259
21 | ATTACTAG | -0.099
22 | GACCGGTC | 0.273
23 | GTATGTAA | -0.0924
24 | GACCTTCC | 0.0988
25 | CACAATTA | -0.149

Row | Sequence | PBM E-score
26 | ACACGGAC | 0.299
27 | CCCGTAAA | 0.0769
28 | AGGCTCCA | -0.238
29 | CATATTAG | -0.0529
30 | GATAAGCC | 0.0243
31 | CCGCTCCA | 0.0975
32 | ACCCACCG | 0.0215
33 | CACGCGTG | 0.283
34 | CCGATCAG | 0.174
35 | TACCCAGA | -0.034
36 | CGTAGTTA | -0.047
37 | ATCGGGAA | 0.279
38 | CCCCGTTC | 0.223
39 | AACCGTAC | -0.141
40 | ACGTTAAT | 0.077
41 | CACCGAAC | -0.0653
42 | GTAATCAC | -0.0461
43 | AGCGCACA | 0.0317
44 | TACAGCCA | -0.0432
45 | TTCCACAA | 0.105
46 | CGTAATAA | -0.142
47 | ACGAGGAC | -0.0685
48 | CGCACTAA | 0.137
49 | CGTATCGC | 0.107
50 | ATCGAAGA | 0.0471

Row | Sequence | PBM E-score
51 | GCCCCCAC | -0.175
52 | CTCCTCTC | -0.136
53 | AAGGGAAT | -0.181
54 | ACTGACAC | -0.00126
55 | ATTCCACC | 0.205
56 | GAGCCGAA | 0.228
57 | CCTCAAGG | -0.147
58 | TGGCGTAA | -0.263
59 | CAAGGCAG | -0.148
60 | AGGCGTGA | -0.279
61 | ATGCAGGC | -0.0231
62 | CGATCCAC | -0.0459
63 | AAAGAGGC | -0.26
64 | CCATCCGC | 0.155
65 | AAGTTTGT | 0.0761
66 | AACCGATC | 0.069
67 | GTCACATA | -0.051
68 | CATCTCAC | 0.011
69 | CTCTCTCA | -0.0973
70 | CTCCGGCC | 0.0522
71 | CACACACC | -0.00112
72 | AAGGATTG | -0.131
73 | ACATCGTG | -0.0397
74 | AGCACCAA | -0.0317
75 | AAGTACCG | 0.0857

Row | Sequence | PBM E-score
76 | CACGCCTG | -0.342
77 | CTGAACGA | -0.218
78 | ATGCCGTA | -0.0431
79 | CGCATTGC | 0.0617
80 | CGGATCAC | 0.391
81 | GCCTTACA | -0.322
82 | AGACAGCC | -0.0779
83 | TATACGGA | 0.221
84 | CCCTTTAA | -0.235
85 | AAGTTCTC | 0.0167
86 | AGTAAGCG | -0.0829
87 | CCACCGTC | 0.013
88 | TATGCTAA | -0.247
89 | TCGTTACA | -0.214
90 | GGTAGGGA | -0.0636
91 | AAGGCCGG | 0.328
92 | CAAAGTTA | -0.00342
93 | CTGGTTAC | -0.096
94 | ATCTTAAT | -0.24
95 | CAAGCGAA | 0.00333
96 | ATTTGGGG | 0.0218
97 | TCGGCCCA | 0.124
98 | GGCTCGGA | 0.338
99 | GAGGCGAC | -0.0756
100 | AGCAACTA | 0.092

Row | Sequence | PBM E-score
101 | CCTTAGTC | -0.211
102 | AATCCATC | 0.0261
103 | CTGTAGCA | -0.251
104 | GCTTAGAA | -0.253
105 | CGAACGCA | 0.152
106 | GCGCCTCA | 0.105
107 | ATCGCGGC | 0.213
108 | CCATGCAG | -0.0248
109 | ACATTTCT | 0.0214
110 | AGGGCAAC | 0.0207
111 | CACTCAAG | -0.336
112 | AACCGGCA | 0.158
113 | AAAACAAC | -0.346
114 | CAGGTTGA | -0.18
115 | CCTCCATC | -0.14
116 | CACATAGG | -0.156
117 | AAAATAAG | -0.194
118 | ATTGCTTC | 0.00849
119 | GCTTCTAA | -0.359
120 | CGCAACAA | -0.0714
121 | CCCTTAAA | -0.188
122 | ATTTCCAG | -0.0734
123 | CCCATATC | 0.0375
124 | CCAACCAC | 0.0773
125 | AACTCACA | 0.0684

Row | Sequence | PBM E-score
126 | TCGGGCCA | 0.093
127 | ACTCTTTG | -0.122
128 | ACTACCCT | -0.179
129 | ACCCTTAA | -0.247
130 | AGCTGCAC | -0.122
131 | GACTCCAC | -0.13
132 | CTAAGAAA | -0.0587
133 | GCAGGCAC | -0.117
134 | ACGACCGT | -0.267
135 | AGGATCGC | -0.021
136 | CGAGTACA | 0.00133
137 | ACCAACAC | -0.03
138 | CCGTCCAA | 0.199
139 | AGCGTTTG | -0.168
140 | GGGCGGGA | 0.35
141 | CGGAGTGC | 0.343
142 | ACAGGGGT | -0.294
143 | AGCAGCAA | 0.0334
144 | AGATAGGA | -0.187
145 | ACATCGAA | 0.117
146 | AGGAGTAG | -0.0728
147 | CAACAAGA | -0.122
148 | AGGACCAA | -0.0331
149 | AACTCCAA | -0.0391
150 | CCACCTAC | -0.303

Row | Sequence | PBM E-score
151 | CATAAAAG | -0.125
152 | AGCGTGCC | 0.00446
153 | ACTGGCTA | -0.0723
154 | CTCAGTAC | -0.183
155 | GAGTTCCA | 0.0759
156 | CGCCCCAA | 0.183
157 | GCTGTCCC | 0.0347
158 | CGTTTCTC | -0.0328
159 | AAAAGGAT | -0.137
160 | GACGTCAC | -0.00811
161 | ACCATAAC | -0.119
162 | CCTCTGTC | -0.0785
163 | CACGTAAA | -0.177
164 | ACTTACAT | -0.155
165 | AGAAACAC | -0.139
166 | CCCGCTAC | 0.105
167 | CGAGGTCA | -0.0832
168 | GCTCCCGA | 0.136
169 | CAAAATCA | 0.0323
170 | TCTCAAGA | -0.214
171 | CGTATGGC | -0.115
172 | GTCTTGGA | -0.0896
